According to PubChem BioAssay AID686979 (National Center for Advancing Translational Sciences (NCATS), 2013):
Among all 420,000 compounds or so, about 50,000 (12%) were called active. The inconclusive results got no clear call from the source; some entries with a clear call stand among them for comparison. Calls follow the shape of the dose curve; as a rule, active = well fitted inhibition curve with a large enough effect; inconclusive = small, poorly fitted or top-dose-only effect; inactive = flat fitted curve, though single readings scatter. Potencies of inconclusive entries are left out as doubtful fits.
% is scaled to controls: 0 for no effect and ±100 for the full control effect; potency is read from the fitted curve at half-maximal effect; tags tell the direction and shape of the fitted curve.

Assay: qHTS for Inhibitors of human tyrosyl-DNA phosphodiesterase 1 (TDP1): qHTS in cells in presence of CPT; also: nearly all actives have a fitted effect of over 55% in size
Settings: chicken DT40 Tdp1-/-;hTDP1 cells + 20 nM CPT, ATP luminescence, 48 h; activity change, negative = growth inhibition: at 46.2 µM (top of the series) unless noted
Procedure, shortened: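 Cell growth measured by CellTiter-Glo luminescence after a minimum 48 h, 37 C compound exposure with 20 nM CPT in Tdp1-knockout DT40 cells stably expressing hTDP1, seeded 400/well; qHTS titration format.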
With `COc1ccccc1CN(C)CC(=O)Nc1ccccc1-c1ccccc1` the Potency was inconclusive [inhibitor, single point]. For `Cc1ccc(-c2nnc(SCc3nc(N)nc(Nc4ccccc4C)n3)n2N)cc1`, the Potency was inconclusive [inhibitor, single point]. For `Cc1cccc(N2CCN(S(=O)(=O)c3cccc4nonc34)CC2)c1C`, the Potency was inconclusive [inhibitor, single point]. For `COc1ccc(CCNC(=O)CCCn2c(=O)c3ccccc3n(CC(=O)Nc3cc(Cl)ccc3C)c2=O)cc1OC`, the Potency was inconclusive [inhibitor, single point]. In the case of `CCc1ccccc1NC(=O)CN(c1cccc(OC)c1)S(C)(=O)=O`, the Potency is reported as inconclusive [inhibitor, single point]. With `Cc1ccc(CN2CCSc3ccc(C(=O)NCc4cccnc4)cc32)cc1` the Potency was active: 23.1 µM. For `C[C@H]1CN([C@@H](C)CO)C(=O)c2cc(Br)cnc2O[C@H]1CN(C)Cc1ccc(Oc2ccccc2)cc1`, the Potency was active: 18.4 µM. In the case of `CCOc1cc(/C=N/O)ccc1OCc1ccccc1F`, the Potency is reported as “inactive”. In the case of `Cc1ccc2nc(-c3cc(NC(=O)/C=C/c4ccccc4)ccc3Cl)oc2c1`, the Potency is reported as active: 23.1 µM. For `CCOc1ccc(OCC(=O)Nc2ccc(S(=O)(=O)Nc3cc(C)nc(C)n3)cc2)cc1`, the Potency was “inactive”. For `COc1ccc(Cl)cc1NC(=O)CN1CCN(Cc2ccccc2)CC1`, the Potency was inconclusive [inhibitor, single point]. For `CCc1cnc2ccccc2c1/C=C/c1ccc(N(C)C)cc1`, the Potency was inconclusive [inhibitor, single point]. With `CCOC(=O)CNC(=O)CSc1nnc(-c2cccc(C)c2)n1-c1ccc(OC)cc1` the Potency was inconclusive [inhibitor, single point]. In the case of `COc1ccc(N(C(=O)C(C)C)S(=O)(=O)c2cccs2)cc1`, the Potency is reported as “inactive”. In the case of `O=C(COc1ccccc1[N+](=O)[O-])Nc1cccc(S(=O)(=O)NC2=NCCCCC2)c1`, the Potency is reported as inconclusive [inhibitor, single point]. In the case of `CC(=O)Nc1ccc(-c2ccnc3c2CC(C(=O)Nc2cccc(C(F)(F)F)c2)O3)cc1` (stereo not given), the Potency is reported as active: 23.1 µM. With `CC1CCN(C(=O)c2[nH]cnc2C(=O)NC2CCN(C(=O)OC(C)(C)C)CC2)CC1` the Potency was inconclusive [inhibitor, single point]. With `Cc1ccccc1-c1noc(CCC(=O)Nc2cccc(C)c2C)n1` the Potency was “inactive”. With `CCC(=O)N1CCN(c2ccc(NC(=O)COc3cccc(C)c3C)cc2)CC1` the Potency was inconclusive [inhibitor, single point]. With `COc1ccc(OC)c(C(=O)NC(CC(N)=O)c2ccc(N3CCN(c4ccc(F)cc4)CC3)c([N+](=O)[O-])c2)c1` (stereo not given) the Potency was inconclusive [inhibitor, single point]. For `COc1ccccc1NC(=O)CCCCCN1C(=O)c2cccc3cccc(c23)C1=O`, the Potency was inconclusive [inhibitor, single point]. With `Oc1ccccc1CNc1ccc(OC(F)(F)F)cc1` the Potency was “inactive”. With `COc1ccc(C(=O)Nc2ccc3nc(N4CCC(C)CC4)cc(C)c3c2)cc1` the Potency was active: 23.1 µM. For `COc1cc(Cl)c(C)cc1NC(=O)c1cn(C2CCCC2)c(=O)c2c1c1ccccc1n2C`, the Potency was active: 0.651 µM. With `Cc1ccc(C(=O)CSc2nc3ccccc3o2)cc1` the Potency was “inactive”. For `COc1ccc(Cl)cc1-n1c(/C=C/c2cccc3ccccc23)nc2ccccc2c1=O`, the Potency was inconclusive [inhibitor, single point]. With `O=C(CSc1nnc(-c2cccnc2)n1Cc1ccco1)c1ccc2ccccc2c1` the Potency was inconclusive [inhibitor, single point]. For `CCC/C(O)=C1\C(=O)CC(C)(C)CC1=Nc1ccccc1OC`, the Potency was inconclusive [inhibitor, single point]. For `COc1ccc2[nH]cc(CCNc3ccnc(-c4cccc(NS(C)(=O)=O)c4)n3)c2c1`, the Potency was inconclusive [inhibitor, single point]. For `CC(=O)N1c2ccc(S(=O)(=O)N3CCC(C(=O)Nc4cccc(F)c4)CC3)cc2CC1C` (stereo not given), the Potency was active: 16.4 µM. With `O=C(Nc1cc(S(=O)(=O)N2CCOCC2)ccc1Cl)c1cc([N+](=O)[O-])ccc1Cl` the Potency was inconclusive [inhibitor, single point]. For `CN(C)CCCNS(=O)(=O)c1ccc(-n2nnc3ccccc32)c([N+](=O)[O-])c1`, the Potency was inconclusive [inhibitor, partial curve, poor fit]. For `O=C(Nc1cccc(Cl)c1)c1cccc(Oc2ccc([N+](=O)[O-])cc2Cl)c1`, the Potency was inconclusive [inhibitor, single point]. For `C=CCSc1nnc(-c2cnn(-c3ccccc3)c2-n2cccc2)n1C`, the Potency was “inactive”. For `CC(CC(=O)Nc1ccc(Cl)c([N+](=O)[O-])c1)c1ccccc1` (stereo not given), the Potency was inconclusive [inhibitor, single point]. For `O=C(NC(=S)Nc1ccccc1N1CCCCC1)c1cccs1`, the Potency was active: 16.4 µM. With `CC1Cc2cc(/C(O)=C3/C(=O)C(=O)N(CCN4CCOCC4)C3c3ccc(C(C)C)cc3)ccc2O1` (stereo not given) the Potency was inconclusive [inhibitor, partial curve, poor fit]. With `CC(C)(N=NC(C)(C)C(=N)N)C(=N)N` the Potency was inconclusive [inhibitor, single point]. In the case of `CC1=NN(C(N)=S)C(=O)C1N=Nc1cccc(C)c1` (stereo not given), the Potency is reported as active: 3.26 µM. With `Cc1cccc(NC(=O)CN2CCN(C(=O)C3CCN(C(=O)/C=C/c4ccccc4)CC3)CC2)c1C` the Potency was active: 16.4 µM. With `CCC(=O)N1CCN(c2c(Cl)cccc2[N+](=O)[O-])CC1` the Potency was inconclusive [inhibitor, single point]. In the case of `O=C(Nc1ccc2c(c1)OCO2)c1ccccc1`, the Potency is reported as inconclusive [inhibitor, single point]. For `CCCc1nc2ccccc2n1CCOc1ccccc1`, the Potency was inconclusive [inhibitor, single point]. With `C[C@@H](c1ccccc1)N1C[C@H](COCc2ccccc2)Oc2cc(N3CCC[C@H]3C(N)=O)ccc2S1(=O)=O` the Potency was inconclusive [inhibitor, single point]. For `COc1ccc(-c2nc(CSc3nncn4c3cc3occc34)c(C)o2)cc1`, the Potency was active: 16.4 µM. For `O=c1c2ccccc2c2ccccc2c(=O)n1-c1ccccc1`, the Potency was inconclusive [inhibitor, single point]. For `COCCNc1nc(Oc2ccc(CC(=O)OC)cc2)c2sc(-c3ccccc3)cc2n1`, the Potency was inconclusive [inhibitor, single point]. With `CCOC(=O)N1CCN(S(=O)(=O)c2ccc(C)cc2)C1c1ccccc1` (stereo not given) the Potency was inconclusive [inhibitor, partial curve]. With `Cc1coc2c(C)c3oc(=O)c(CCC(=O)NCCc4ccccc4)c(C)c3cc12` the Potency was active: 13 µM. In the case of `CCOCCCNC(=O)CCc1nnc2n(CCC(C)C)c(=O)c3ccccc3n12`, the Potency is reported as “inactive”. With `O=C(O)c1ccccc1NS(=O)(=O)c1cccc2cccnc12` the Potency was “inactive”. In the case of `Cc1nn(C)c(C(=O)NNC(=S)NCC(C)C)c1Cl`, the Potency is reported as inconclusive [inhibitor, single point]. With `CCOc1ccc(CCNC(c2cccc(Cl)c2)c2nnc(-c3ccccc3)o2)cc1OCC` (stereo not given) the Potency was active: 16.4 µM. For `COc1cccc(N2C(=NC(=O)C3CCCCC3)SC3CS(=O)(=O)CC32)c1` (stereo not given), the Potency was “inactive”. For `O=C(CNC(=O)c1cc2c(n(-c3ccccc3)c1=O)CCCC2=O)c1ccccc1`, the Potency was “inactive”. For `Cc1ccc(C(=O)N2CCN=C2SCc2ccc([N+](=O)[O-])cc2)cc1C`, the Potency was inconclusive [inhibitor, single point]. For `O=C(Nc1ccc(Nc2ccccc2)cc1)c1cccc(F)c1`, the Potency was inconclusive [inhibitor, single point]. In the case of `O=C(NCc1ccccc1)c1cc2nc(C3CC3)cc(C(F)(F)F)n2n1`, the Potency is reported as inconclusive [inhibitor, single point]. For `CCc1ccc(-c2[nH]c3c(c2-c2sc(C)c(C(=O)OC)c2O)c(=O)[nH]c(=O)n3C)cc1`, the Potency was active: 7.31 µM. With `CCC(=O)Nc1ccc(C(=O)COC(=O)Cc2ccsc2)cc1` the Potency was “inactive”. In the case of `CC(C)(C)c1ccc(-n2ncc3c2CCCC3NC(=O)CN2CCCC2=O)cc1` (stereo not given), the Potency is reported as active: 18.4 µM. In the case of `CCCCN(CCCC)S(=O)(=O)c1ccc2oc(C(=O)NCc3ccc(C)cc3)c(C)c2c1`, the Potency is reported as active: 8.2 µM. With `Cc1c(Cl)cccc1NC(=O)COC(=O)CN1C(=O)NC(C)(C)C1=O` the Potency was “inactive”. With `CCOc1ccccc1NC(=O)COC(=O)c1ccc2ccccc2n1` the Potency was “inactive”. With `COc1ccc(C(=O)Nc2cc(Cl)ccc2N2CCOCC2)cc1S(=O)(=O)N1CCOCC1` the Potency was inconclusive [inhibitor, single point]. In the case of `CCOC(=O)c1cc(C#N)c(N2CCCCC2)nc1-c1ccccc1`, the Potency is reported as “inactive”. With `O=C(O)c1cc(N=Cc2c(O)c3ccccc3oc2=O)ccc1O` the activity change, negative = growth inhibition was inconclusive: -33.1% [inhibitor]. For `COc1cccc(/C=C/c2nc(C#N)c(NCCc3ccc(OC)c(OC)c3)o2)c1`, the Potency was inconclusive [inhibitor, single point]. With `COc1ncccc1C(=O)Nc1c(-c2ccccc2)[nH][nH]c1=O` the Potency was “inactive”. With `COc1ccc(-c2cc(C(=O)N3CCCC(C(F)(F)F)C3)c3ccccc3n2)cc1` (stereo not given) the Potency was inconclusive [inhibitor, single point].
